# Some of the results follow.
# B1: PhoQ; a variant is named by its letters at X, in order, P23837 (parent)
# chain: MKKLLRLFFPLSLRVRFLLATAAVVLVLSLAYGMVALIGYSVSFDKTTFRLLRGESNLFYTLAKWENNKLHVELPENIDKQSPTMTLIYDENGQLLWAQRDVPWLMKMIQPDWLKSNGFHEIEADVNDTSLLLSGDHSIQQQLQEVREDDDDAEMTHSVAVNVYPATSRMPKLTIVVVDTIPVELKSSYMVWSWFIYVLSANLLLVIPLLWVAAWWSLRPIEALAKEVRELEEHNRELLNPATTRELTSLVRNLNRLLKSERERYDKYRTTLTDLTHSLKTPLXXLQXXLRSLRSEKMSVSDAEPVMLEQISRISQQIGYYLHRASMRGGTLLSRELHPVAPLLDNLTSALNKVYQRKGVNISLDISPEISFVGEQNDFVEVMGNVLDNACKYCLEFVEISARQTDEHLYIVVEDDGPGIPLSKREVIFDRGQRVDTLRPGQGVGLAVAREITEQYEGKIVAGESMLGGARMEVIFGRQHSAPKDE
# Variants of: B1
# Assay: enrichment ratio after two sorts for PhoP signalling (ratio (wild type AVST 3.29)); higher = more functional
# Conditions: with PhoP (E. coli)
row,Variant,enrichment ratio
1,DSIP,≤ 0.25
2,HQYM,≤ 0.25
3,LGPV,≤ 0.25
4,TQWN,10.1
5,LEGW,≤ 0.25
6,DRSM,≤ 0.25
7,QHGD,≤ 0.25
8,MEQF,≤ 0.25
9,QRTA,≤ 0.25
10,DPMH,≤ 0.25
11,HAQM,≤ 0.25
12,VVMR,≤ 0.25
13,DRAV,≤ 0.25
14,KQYR,≤ 0.25
15,VSFW,≤ 0.25
16,FWVV,≤ 0.25
17,LSGH,≤ 0.25
18,TYKN,≤ 0.25
19,VSMA,≤ 0.25
20,KNLQ,≤ 0.25
21,HDNT,≤ 0.25
22,LQCC,≤ 0.25
23,TCAM,8.72
24,YKCW,8.39

row,Variant,enrichment ratio
1,AMQG,≤ 0.25
2,GNWM,≤ 0.25
3,SHYC,≤ 0.25
4,TRES,≤ 0.25
5,GRFL,≤ 0.25
6,IMKS,≤ 0.25
7,LMLC,≤ 0.25
8,LMQN,≤ 0.25
9,KNWF,≤ 0.25
10,KNSC,≤ 0.25
11,GMMA,≤ 0.25
12,QAKT,≤ 0.25
13,RSQM,≤ 0.25
14,WKLD,≤ 0.25
15,SGDH,≤ 0.25
16,NQWH,≤ 0.25
17,IRQR,≤ 0.25
18,LHLC,≤ 0.25
19,VGLD,≤ 0.25
20,NVWI,≤ 0.25
21,EVTT,≤ 0.25
22,HRAF,≤ 0.25
23,YEPV,≤ 0.25
24,MEKT,≤ 0.25

row,Variant,enrichment ratio
1,HRKN,≤ 0.25
2,LSRT,≤ 0.25
3,IHNK,≤ 0.25
4,LHGE,≤ 0.25
5,YYWP,≤ 0.25
6,IKKG,≤ 0.25
7,ACGK,≤ 0.25
8,QMDW,≤ 0.25
9,HEFR,≤ 0.25
10,HQAS,≤ 0.25
11,HSQW,≤ 0.25
12,LVHE,≤ 0.25
13,VGWM,2.09
14,YKFK,≤ 0.25
15,KQLS,≤ 0.25
16,HYRP,≤ 0.25
17,RKEI,≤ 0.25
18,TEKG,≤ 0.25
19,QSKK,≤ 0.25
20,YGCP,≤ 0.25
21,MFGL,≤ 0.25
22,SLFR,≤ 0.25
23,QRVV,≤ 0.25
24,GEAA,11.4

row,Variant,enrichment ratio
1,HWEH,≤ 0.25
2,ARYF,≤ 0.25
3,GAAK,≤ 0.25
4,ALWL,≤ 0.25
5,FVDR,≤ 0.25
6,TGPM,≤ 0.25
7,RCKY,≤ 0.25
8,QINW,≤ 0.25
9,VESD,≤ 0.25
10,QEPT,≤ 0.25
11,RYLF,≤ 0.25
12,GVRS,≤ 0.25
13,QRFA,≤ 0.25
14,WSQK,≤ 0.25
15,EVIP,≤ 0.25
16,FYKR,≤ 0.25
17,WYSP,≤ 0.25
18,EPMM,≤ 0.25
19,FKYI,1.2
20,EYAA,≤ 0.25
21,GWEV,≤ 0.25
22,ANWA,≤ 0.25
23,LDLY,≤ 0.25
24,KQFY,≤ 0.25

row,Variant,enrichment ratio
1,YCWI,≤ 0.25
2,IISI,≤ 0.25
3,YAWN,≤ 0.25
4,ASAM,20.2
5,GPEL,≤ 0.25
6,GMDV,≤ 0.25
7,PLIT,≤ 0.25
8,LFGN,≤ 0.25
9,LYQT,≤ 0.25
10,IRHL,≤ 0.25
11,VMTV,≤ 0.25
12,MMFK,≤ 0.25
13,ITHY,≤ 0.25
14,TLMC,4.84
15,RDCC,≤ 0.25
16,FNDA,≤ 0.25
17,RLND,≤ 0.25
18,GNTH,≤ 0.25
19,PHST,≤ 0.25
20,QELL,≤ 0.25
21,NVGW,≤ 0.25
22,HVWM,≤ 0.25
23,GEHN,≤ 0.25
24,KKNP,≤ 0.25

row,Variant,enrichment ratio
1,IKFT,≤ 0.25
2,TDFD,≤ 0.25
3,FSRR,≤ 0.25
4,LALI,4.76
5,DTKS,≤ 0.25
6,GMTW,≤ 0.25
7,NLPG,≤ 0.25
8,FFGM,≤ 0.25
9,DKRM,≤ 0.25
10,RWGP,≤ 0.25
11,TKCT,38.2
12,LDMN,≤ 0.25
13,TQSG,22.2
14,SPDV,≤ 0.25
15,QHMK,≤ 0.25
16,FRDN,≤ 0.25
17,FMKH,≤ 0.25
18,CHRK,≤ 0.25
19,TVDM,≤ 0.25
20,FYVG,≤ 0.25
21,DSYW,0.671
22,YQTE,≤ 0.25
23,EVAF,≤ 0.25
24,STCP,≤ 0.25

row,Variant,enrichment ratio
1,KVYY,≤ 0.25
2,TCLL,1.89
3,EKVY,≤ 0.25
4,RGIG,≤ 0.25
5,MPYE,≤ 0.25
6,VPPQ,≤ 0.25
7,DWEH,≤ 0.25
8,LEYT,11.9
9,SAKQ,≤ 0.25
10,NCLY,≤ 0.25
11,WFGC,≤ 0.25
12,QSCN,≤ 0.25
13,GSTP,≤ 0.25
14,WIMV,≤ 0.25
15,HTQW,≤ 0.25
16,MMCQ,4.77
17,FHKN,≤ 0.25
18,CSIS,≤ 0.25
19,VEAM,3.2
20,HRDR,0.741
21,SWNC,≤ 0.25
22,ANGD,≤ 0.25
23,FSWP,≤ 0.25
24,DLIH,≤ 0.25

row,Variant,enrichment ratio
1,TGED,≤ 0.25
2,SSRV,≤ 0.25
3,LTHQ,≤ 0.25
4,MLNV,≤ 0.25
5,DIQC,≤ 0.25
6,KEWT,≤ 0.25
7,VHIV,≤ 0.25
8,FLFG,≤ 0.25
9,PIST,≤ 0.25
10,SPRC,≤ 0.25
11,LTGD,≤ 0.25
12,HPIP,≤ 0.25
13,LNVI,≤ 0.25
14,DEYR,≤ 0.25
15,LCGA,≤ 0.25
16,NKCM,≤ 0.25
17,MRDP,≤ 0.25
18,KFMT,≤ 0.25
19,QRQI,≤ 0.25
20,NMCR,≤ 0.25
21,GNYY,≤ 0.25
22,ETWM,≤ 0.25
23,NWVY,≤ 0.25
24,VGPN,≤ 0.25

row,Variant,enrichment ratio
1,HWMT,≤ 0.25
2,ADVA,≤ 0.25
3,MFNQ,≤ 0.25
4,DAIM,≤ 0.25
5,IWFM,≤ 0.25
6,TYMG,14.3
7,IWVK,≤ 0.25
8,AWAC,≤ 0.25
9,HCLW,≤ 0.25
10,IGIR,≤ 0.25
11,FQNS,≤ 0.25
12,KDTS,≤ 0.25
13,LYSY,≤ 0.25
14,FWLC,≤ 0.25
15,NSTA,≤ 0.25
16,WQTS,≤ 0.25
17,LLEP,≤ 0.25
18,EALT,≤ 0.25
19,TGTA,11.1
20,AAKS,≤ 0.25
21,WRAM,≤ 0.25
22,PWNQ,≤ 0.25
23,LVIW,≤ 0.25
24,SKVG,≤ 0.25

row,Variant,enrichment ratio
1,RRCR,≤ 0.25
2,FNNY,≤ 0.25
3,ANQR,≤ 0.25
4,SGVN,16.8
5,AGGA,0.444
6,WYYP,≤ 0.25
7,SGCV,15.2
8,DFKV,≤ 0.25
9,MYQP,≤ 0.25
10,NTAA,≤ 0.25
11,HKQL,≤ 0.25
12,KINH,≤ 0.25
13,LFWK,≤ 0.25
14,RAWD,≤ 0.25
15,DTDI,≤ 0.25
16,SVGQ,2.73
17,MCTS,1.34
18,WRGE,≤ 0.25
19,RLSK,≤ 0.25
20,KDPH,≤ 0.25
21,KSKE,≤ 0.25
22,HFYK,0.61
23,REPS,≤ 0.25
24,GDWW,≤ 0.25

row,Variant,enrichment ratio
1,LCMG,≤ 0.25
2,HHHV,≤ 0.25
3,PSLC,≤ 0.25
4,WHAA,≤ 0.25
5,GEPH,≤ 0.25
6,ILPP,≤ 0.25
7,IDYD,≤ 0.25
8,GTWL,≤ 0.25
9,QDKC,≤ 0.25
10,NMIY,≤ 0.25
11,PWYC,≤ 0.25
12,TDQR,≤ 0.25
13,AAGL,8.23
14,DKET,≤ 0.25
15,GHAM,≤ 0.25
16,KFMA,≤ 0.25
17,GEQG,≤ 0.25
18,PQSA,≤ 0.25
19,VQQG,≤ 0.25
20,YGSS,≤ 0.25
21,FTQQ,≤ 0.25
22,AFNN,≤ 0.25
23,QEVV,≤ 0.25
24,AWFE,≤ 0.25

row,Variant,enrichment ratio
1,DSQS,≤ 0.25
2,MEII,2.69
3,CQTL,≤ 0.25
4,QGDE,4.94
5,ISRV,≤ 0.25
6,DEMW,≤ 0.25
7,NMWK,≤ 0.25
8,ISFW,≤ 0.25
9,QYRD,≤ 0.25
10,QSKS,≤ 0.25
11,GDVG,≤ 0.25
12,TRKN,≤ 0.25
13,YRDA,≤ 0.25
14,FREC,≤ 0.25
15,IGKV,≤ 0.25
16,NHMV,≤ 0.25
17,GHCG,≤ 0.25
18,LNMG,≤ 0.25
19,DGWG,≤ 0.25
20,AKEY,≤ 0.25
21,EKHV,≤ 0.25
22,GHRW,≤ 0.25
23,YGVA,≤ 0.25
24,HQMR,≤ 0.25

row,Variant,enrichment ratio
1,FMQL,≤ 0.25
2,QCAY,≤ 0.25
3,ELGN,≤ 0.25
4,EGHV,≤ 0.25
5,LCAD,≤ 0.25
6,LKGC,≤ 0.25
7,MKPL,≤ 0.25
8,ILRS,≤ 0.25
9,NHYH,≤ 0.25
10,LCKD,≤ 0.25
11,YLVA,≤ 0.25
12,NATN,≤ 0.25
13,AKKT,≤ 0.25
14,DSSF,≤ 0.25
15,AKVL,5.91
16,WCRC,≤ 0.25
17,HPVD,≤ 0.25
18,QNLR,≤ 0.25
